In US20100016547A1, “Glycosilated Peptide and Medicine Comprising It as an Effective Ingredient” (priority 2005, published 2010):
At least one read-out could not be matched to a standard name with certainty. Peptide text beside a SMILES is read from it. * marks the point of attachment. X1 = CC(=O)N[C@@H]1[C@@H](O)[C@H](O[C@@H]2O[C@H](CO)[C@H](O)[C@H](O)[C@H]2O)[C@@H](CO)O[C@H]1N*

What follows are compounds tested against recombinant human DPP-IV (Homo sapiens, UniProt P27487) (assay: Assay for degradation kinetics by DPP-IV). Details: degradation by DPPIV, 37° C., pH 7.5; ND means no degradation product.
recombinant human DPP-IV, sequence (P27487 whole entry): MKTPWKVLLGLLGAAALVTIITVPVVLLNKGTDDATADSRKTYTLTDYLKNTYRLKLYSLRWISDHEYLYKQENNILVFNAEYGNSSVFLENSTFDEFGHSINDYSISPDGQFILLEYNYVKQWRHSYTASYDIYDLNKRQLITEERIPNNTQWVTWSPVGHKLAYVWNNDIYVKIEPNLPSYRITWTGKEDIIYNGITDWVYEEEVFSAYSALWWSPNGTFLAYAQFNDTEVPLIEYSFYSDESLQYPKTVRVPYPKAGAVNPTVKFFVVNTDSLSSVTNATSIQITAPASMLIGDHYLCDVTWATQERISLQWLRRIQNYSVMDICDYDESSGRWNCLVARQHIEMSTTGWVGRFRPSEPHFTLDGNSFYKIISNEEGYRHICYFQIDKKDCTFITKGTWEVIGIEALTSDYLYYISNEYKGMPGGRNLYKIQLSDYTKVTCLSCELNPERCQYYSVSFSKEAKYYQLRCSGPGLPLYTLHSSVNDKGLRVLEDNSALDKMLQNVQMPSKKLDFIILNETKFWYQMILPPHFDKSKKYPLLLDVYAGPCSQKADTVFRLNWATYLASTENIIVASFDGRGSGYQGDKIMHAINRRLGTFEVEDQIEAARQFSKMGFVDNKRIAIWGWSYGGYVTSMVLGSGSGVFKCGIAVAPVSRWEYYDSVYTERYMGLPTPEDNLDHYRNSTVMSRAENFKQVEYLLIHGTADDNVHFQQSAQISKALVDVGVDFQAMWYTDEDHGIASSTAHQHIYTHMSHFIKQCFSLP

| Structure (SMILES) | resistance: kcat/KM |
| --- | --- |
| CC[C@H](C)[C@H](NC(=O)[C@H](Cc1ccccc1)NC(=O)[C@H](CCC(=O)O)NC(=O)[C@H](CCCCN)NC(=O)[C@H](C)NC(=O)[C@H](C)NC(=O)[C@H](CCC(N)=O)NC(=O)CNC(=O)[C@H](CCC(=O)O)NC(=O)[C@H](CC(C)C)NC(=O)[C@H](Cc1ccc(O)cc1)NC(=O)[C@H](CO)NC(=O)[C@H](CO)NC(=O)[C@@H](NC(=O)[C@H](CC(=O)O)NC(=O)[C@H](CO)NC(=O)[C@@H](NC(=O)[C@H](Cc1ccccc1)NC(=O)[C@@H](NC(=O)CNC(=O)[C@H](CCC(=O)O)NC(=O)[C@H](C)NC(=O)[C@@H](N)Cc1c[nH]cn1)[C@@H](C)O)[C@@H](C)O)C(C)C)C(=O)N[C@@H](C)C(=O)N[C@@H](Cc1c[nH]c2ccccc12)C(=O)N[C@@H](CC(C)C)C(=O)N[C@H](C(=O)N[C@@H](CC(=O)N[C@@H]1O[C@H](CO)[C@@H](O)[C@H](O)[C@H]1NC(C)=O)C(=O)NCC(=O)N[C@@H](CCCNC(=N)N)C(=O)N[C@@H](CC(=O)N[C@@H]1O[C@H](CO)[C@@H](O)[C@H](O)[C@H]1NC(C)=O)C(N)=O)C(C)C [GL3437NG] | 2.5 10^4/Ms |
| CC[C@H](C)[C@H](NC(=O)[C@H](Cc1ccccc1)NC(=O)[C@H](CCC(=O)O)NC(=O)[C@H](CCCCN)NC(=O)[C@H](C)NC(=O)[C@H](C)NC(=O)[C@H](CCC(N)=O)NC(=O)CNC(=O)[C@H](CCC(=O)O)NC(=O)[C@H](CC(C)C)NC(=O)[C@H](CC(=O)N[C@@H]1O[C@H](CO)[C@@H](O[C@@H]2O[C@H](CO)[C@H](O)[C@H](O)[C@H]2O)[C@H](O)[C@H]1NC(C)=O)NC(=O)[C@H](CO)NC(=O)[C@H](CO)NC(=O)[C@@H](NC(=O)[C@H](CC(=O)O)NC(=O)[C@H](CO)NC(=O)[C@@H](NC(=O)[C@H](Cc1ccccc1)NC(=O)[C@@H](NC(=O)CNC(=O)[C@H](CCC(=O)O)NC(=O)[C@H](C)NC(=O)[C@@H](N)Cc1c[nH]cn1)[C@@H](C)O)[C@@H](C)O)C(C)C)C(=O)N[C@@H](C)C(=O)N[C@@H](Cc1c[nH]c2ccccc12)C(=O)N[C@@H](CC(C)C)C(=O)N[C@H](C(=O)N[C@@H](CCCCN)C(=O)NCC(=O)N[C@@H](CCCNC(=N)N)C(N)=O)C(C)C [GL19NL] (H-HAEGTFTSDVSSD(X1)LEGQAAKEFIAWLVKGR-NH2; N-terminus assumed) | 2.8 10^4/Ms |
| CC[C@H](C)[C@H](NC(=O)[C@H](Cc1ccccc1)NC(=O)[C@H](CCC(=O)O)NC(=O)[C@H](CCCCN)NC(=O)[C@H](C)NC(=O)[C@H](C)NC(=O)[C@H](CCC(N)=O)NC(=O)CNC(=O)[C@H](CCC(=O)O)NC(=O)[C@H](CC(C)C)NC(=O)[C@H](Cc1ccc(O)cc1)NC(=O)[C@H](CO)NC(=O)[C@H](CO)NC(=O)[C@@H](NC(=O)[C@H](CC(=O)O)NC(=O)[C@H](CO)NC(=O)[C@@H](NC(=O)[C@H](Cc1ccccc1)NC(=O)[C@@H](NC(=O)CNC(=O)[C@H](CCC(=O)O)NC(=O)[C@H](C)NC(=O)[C@@H](N)Cc1c[nH]cn1)[C@@H](C)O)[C@@H](C)O)C(C)C)C(=O)N[C@@H](C)C(=O)N[C@@H](Cc1c[nH]c2ccccc12)C(=O)N[C@@H](CC(C)C)C(=O)N[C@H](C(=O)N[C@@H](CC(=O)N[C@@H]1O[C@H](CO)[C@@H](O[C@@H]2O[C@H](CO[C@]3(C(=O)O)C[C@H](O)[C@@H](NC(C)=O)[C@H]([C@H](O)[C@H](O)CO)O3)[C@H](O)[C@H](O)[C@H]2O)[C@H](O)[C@H]1NC(C)=O)C(=O)NCC(=O)N[C@@H](CCCNC(=N)N)C(=O)N[C@@H](CC(=O)N[C@@H]1O[C@H](CO)[C@@H](O[C@@H]2O[C@H](CO[C@]3(C(=O)O)C[C@H](O)[C@@H](NC(C)=O)[C@H]([C@H](O)[C@H](O)CO)O3)[C@H](O)[C@H](O)[C@H]2O)[C@H](O)[C@H]1NC(C)=O)C(N)=O)C(C)C [GL3437NS6] | 0.21 10^4/Ms |
